The whole screen tested about 390,000 compounds, of which about 4,700 (1.2%) were called active. Inconclusive results, whose numbers are uncertain, are shown with a selection of clear calls. Calls follow the shape of the dose curve; as a rule, active = well fitted inhibition curve with a large enough effect; inconclusive = small, poorly fitted or top-dose-only effect, or another doubt; inactive = no such curve, though single readings can be large or run the other way. Where the call is inconclusive, the potency comes from a doubtful curve fit.
Target: DNA polymerase eta (Homo sapiens) (UniProt Q9Y253)
Assay: qHTS for Inhibitors of Polymerase Eta
Details: recombinant Pol eta, fluorescent DNA replication assay; series mostly up to 114 µM; activity change, negative = inhibition: at the top concentration
How it was run: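 Pol eta at 10 nM preincubated with compounds 15 min at room temperature; reaction started with fluorescent substrate (50 nM final) and read kinetically at 0 and 10 min.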
% is scaled to controls: 0 for no effect and ±100 for the full control effect; potency is read from the fitted curve at half-maximal effect; tags tell the direction and shape of the fitted curve.

Sequence of UniProt Q9Y253 (Q9Y253 whole entry, looked up): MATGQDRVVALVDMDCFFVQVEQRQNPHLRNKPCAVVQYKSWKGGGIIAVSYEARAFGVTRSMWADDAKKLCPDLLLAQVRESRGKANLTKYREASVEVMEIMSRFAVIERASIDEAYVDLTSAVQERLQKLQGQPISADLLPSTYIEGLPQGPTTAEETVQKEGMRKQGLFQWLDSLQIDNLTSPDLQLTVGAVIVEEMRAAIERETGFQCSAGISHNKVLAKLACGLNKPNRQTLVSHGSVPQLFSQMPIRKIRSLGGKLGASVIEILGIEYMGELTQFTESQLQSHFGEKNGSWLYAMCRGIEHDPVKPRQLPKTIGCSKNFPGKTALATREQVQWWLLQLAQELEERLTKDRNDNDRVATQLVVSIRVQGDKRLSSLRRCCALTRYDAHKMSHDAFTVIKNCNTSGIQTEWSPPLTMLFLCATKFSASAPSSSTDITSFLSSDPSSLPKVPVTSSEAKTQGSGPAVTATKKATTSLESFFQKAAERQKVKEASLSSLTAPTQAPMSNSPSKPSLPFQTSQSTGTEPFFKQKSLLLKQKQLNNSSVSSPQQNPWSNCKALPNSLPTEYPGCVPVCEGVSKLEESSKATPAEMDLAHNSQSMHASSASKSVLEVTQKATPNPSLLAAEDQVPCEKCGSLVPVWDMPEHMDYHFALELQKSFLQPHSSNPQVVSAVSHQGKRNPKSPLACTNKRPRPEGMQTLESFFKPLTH

Row | SMILES | Potency | activity change, negative = inhibition
1 | CCOC(=O)C1=C(CSc2nc3c(cc2C#N)CN(C)CC3)OC(N)=C(C#N)C1c1ccc(Cl)cc1 (stereo not drawn) | inconclusive: 17.8 µM [inhibitor, partial curve] | 
2 | Cc1cc(Cl)ccc1OC(C)C(=O)N1CCCN(C(=O)C(C)Oc2ccc(Cl)cc2C)CC1 (stereo not drawn) | inconclusive: 56.2 µM [inhibitor, partial curve, poor fit] | 
3 | COc1ccc(/C=N/N2CCN(C3c4ccccc4-c4ccccc43)CC2)cc1O |  | inactive: -8.14%
4 | NS(=O)(=O)c1cc(Cl)c(NC(=O)COC(=O)c2ccccn2)c(Cl)c1 | active: 79.4 µM | 
5 | C#Cc1ccc(C(=O)NCc2ccc(N3CCCC3=O)cc2)cc1 | active: 15.8 µM | 
6 | COc1ccc(-c2cc(C#N)nc(Cl)n2)cc1 |  | inactive: -11.3%
7 | CCOC(=O)c1c2c3c(cccc3[nH]c1=O)C(=O)c1ccccc1-2 | inconclusive: 44.7 µM [inhibitor, partial curve] | 
8 | Cc1ccc(NC(=O)c2cnc(SCC(=O)c3ccccc3)n(C)c2=O)cc1 | inconclusive: 6.31 µM [inhibitor, partial curve] | 
9 | COc1ccc(Cl)cc1C(=O)NC(=S)Nc1cc(-c2nc3ccccc3[nH]2)ccc1C | inconclusive: 2.82 µM [inhibitor, full curve] | 
10 | Cc1ccc(Nc2nc(-c3cccnc3)cs2)cc1Cl | inconclusive: 0.126 µM [inhibitor, partial curve, poor fit] | 
11 | CSCCC(NC(=O)c1ccccc1)C(=O)OCC(=O)NCc1ccco1 (stereo not drawn) | inconclusive: 17.8 µM [inhibitor, full curve, poor fit] | 
12 | O=C(O)c1ccc(CNc2ccccc2C(=O)O)cc1 | inconclusive: 44.7 µM [inhibitor, partial curve, poor fit] | 
13 | CCOC(=O)c1c(NC(=O)Cc2ccccc2)sc2c1CCN(C)C2 |  | inactive: -10.8%
14 | CN(C)c1ccc(S(=O)(=O)NCC(=O)OCC(=O)c2ccc[nH]2)cc1[N+](=O)[O-] | inconclusive: 89.1 µM [inhibitor, partial curve, poor fit] | 
15 | CCCN(CC1CC1)c1nc(C)nc(Nc2c(Cl)cc(Cl)cc2Cl)c1Cl | inconclusive: 79.4 µM [inhibitor, partial curve, poor fit] | 
16 | O=C(CCCn1c(=O)c2sccc2n(Cc2ccc(F)cc2Cl)c1=O)NCc1ccc2c(c1)OCO2 |  | inactive: -16.7%
17 | C=CCN1C=C/C(=C\C=C(C#N)C#N)c2ccccc21 | inconclusive: 31.6 µM [inhibitor, partial curve, poor fit] | 
18 | CCCCN1C[C@H](c2ccc(Br)cc2)[C@@H](CC(=O)Nc2ccc(Br)cc2)C1=O | inconclusive: 79.4 µM [inhibitor, partial curve, poor fit] | 
19 | O=c1[nH]c(=O)c2nc3c4ccccc4c4ccccc4c3nc2[nH]1 | active: 28.2 µM | 
20 | Cc1c(C#N)c(N)nc2c3c(sc12)NC(=O)CC3c1ccc(Cl)cc1 (stereo not drawn) |  | inactive: 2.06%
21 | O=C(CN1CCOCC1)N/N=C/c1ccc(-c2cccc(Cl)c2Cl)o1 | inconclusive: 89.1 µM [inhibitor, partial curve, poor fit] | 
22 | CCCCCCC(=O)N1C/C=C\C(c2ccc(OC)cc2)N(Cc2ccc(F)cc2)C(=O)[C@H]1Cc1ccccc1 (stereo partly drawn) |  | inactive: -14.6%

Row | SMILES | Potency | activity change, negative = inhibition
23 | Cc1cnc(C(=O)OCc2nc3ccsc3c(=O)[nH]2)cn1 | active: 10 µM | 
24 | C=CCn1c(=O)c(CCC(=O)Nc2ccc(N3CCOCC3)cc2)nc2cc(C(F)(F)F)ccc21 | active: 79.4 µM | 
25 | CCc1cccc(NC(=O)c2nc(-c3ccncc3)no2)c1 |  | inactive: -4.35%
26 | C=C(C)CN(CC)C(=O)COc1ccc(S(=O)(=O)Nc2ccc(OC)cc2)cc1 |  | inactive: -9.1%
27 | CSc1nc(N2CCOCC2)c2c3c(sc2n1)CCCC3 | inconclusive: 89.1 µM [inhibitor, partial curve, poor fit] | 
28 | CCOC(=O)Cc1nnc(NC(=O)c2ccccc2OCC)s1 |  | inactive: -12.5%
29 | CCOc1ccc(NS(=O)(=O)c2cc(NC(=O)c3ccc(C)cc3)ccc2Cl)cc1 | inconclusive: 22.4 µM [inhibitor, partial curve, poor fit] | 
30 | CCn1ccc2cc(S(=O)(=O)N3CCC(C(=O)NCCc4ccc(SC)cc4)CC3)ccc21 |  | inactive: -17.3%
31 | CC1CN(C(=O)CCC(=O)NCc2ccccc2)c2ccccc2S1 (stereo not drawn) | inconclusive: 100 µM [inhibitor, partial curve, poor fit] | 
32 | CCOc1ccccc1NC(=O)CN(CCc1ccccc1)S(=O)(=O)c1ccc(C)cc1 |  | inactive: -13.1%
33 | COc1ccc(CCC(=O)NNC(=O)c2ccc(F)cc2)cc1 | inconclusive: 100 µM [inhibitor, partial curve, poor fit] | 
34 | O=C(CSc1nc2c(c(=O)n1-c1ccc(F)cc1)SCC2)NCc1ccco1 | inconclusive: 22.4 µM [inhibitor, partial curve, poor fit] | 
35 | CCCCN(CC)CCNC(=O)Cn1c(=O)c2cccn2c2cccnc21 |  | inactive: -9.54%
36 | Cc1ccc2c(c1)c1nnc(SCC(=O)Nc3cccc(Cl)c3C)nc1n2CC(=O)O | active: 79.4 µM | 
37 | Cc1c(C(=O)O)sc(S(=O)(=O)N2CCN(C(=O)Cc3ccccc3Cl)CC2)c1C(=O)O | inconclusive: 15.8 µM [inhibitor, partial curve, poor fit] | 
38 | Cc1ccc(N2CC(C(=O)OCC(=O)Nc3ccc(Cl)cc3)CC2=O)cc1 (stereo not drawn) |  | inactive: -11%
39 | O=C1S/C(=C\c2ccc(O)c([N+](=O)[O-])c2)C(=O)N1c1ccccc1Cl | inconclusive: 50.1 µM [inhibitor, partial curve, poor fit] | 
40 | Cc1ccc2c(c1)c1nnc(SCC(=O)Nc3ccc(N(C)C)cc3)nc1n2CC(=O)O | inconclusive: 35.5 µM [inhibitor, partial curve, poor fit] | 
41 | CC(C)(C)c1ccc(C(=O)N2CC(=O)Nc3ccc(F)cc3C2c2ccc(F)cc2)cc1 (stereo not drawn) |  | inactive: -15.4%
42 | CCCSc1nc2sc3c(c2c(=O)[nH]1)CCN(Cc1ccccc1)C3 | inconclusive: 35.5 µM [inhibitor, partial curve, poor fit] | 
43 | Cc1ccc(O)c(C(=O)c2cc(C#N)c3nc4ccccc4n3c2)c1 | inconclusive: 28.2 µM [inhibitor, partial curve, poor fit] | 
